According to the supplement of paper PMC6135742:
Structures can show the parent of a compound that is named as a salt. ± gives the standard deviation of the averaged measurements. Over roughly 2,600 compounds, “MBP+ mature oligodendrocyte number relative to DMSO vehicle control” has its median near -0.34; the highest 2% begin near 13. Some of the results follow.

tested on: jimpy (Plp1 jimpy) mouse iPSC-derived oligodendrocyte progenitor cells; assay: MBP+ mature oligodendrocyte number relative to DMSO vehicle control (SDs above negative control mean); higher = more surviving jimpy oligodendrocytes (rescue); conditions: 10 µM; 3 days
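Also: 10 µM single dose with 3-day oligodendrocyte differentiation.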

| Structure (SMILES) | MBP+ mature oligodendrocyte number |
| --- | --- |
| C[C@](N)(Cc1ccc(O)cc1)C(=O)O [L-alpha-Methyl-p-tyrosine] | -0.0882 |
| CC(C)NCC(O)COc1cccc2ccccc12 (racemic) [(±)-Propranolol hydrochloride] | 0.5 |
| CC(C)NCC(O)COc1cccc2ccccc12 (racemic) [Propranolol HCl] | 2.18 |
| CS(=O)(=O)c1ccc([C@@H](O)[C@@H](CF)NC(=O)C(Cl)Cl)cc1 [Florfenicol] | 6.57 |
| CCN(CC)CCCC(C)Nc1ccnc2cc(Cl)ccc12 (stereo unspecified) [Chloroquine diphosphate] | -2.08 |
| C[N+](C)(C)CCOP(=O)(O)OP(=O)([O-])OC[C@H]1O[C@@H](n2ccc(N)nc2=O)[C@H](O)[C@@H]1O [Cytidine 5'-diphosphocholine sodium salt hydrate] | -0.648 |
| CC(C)c1nc(N(C)S(C)(=O)=O)nc(-c2ccc(F)cc2)c1/C=C/[C@@H](O)C[C@@H](O)CC(=O)O [Rosuvastatin Calcium] | -1.17 |
| C=C(C)[C@@H]1CC[C@]2(C(=O)O)CC[C@]3(C)[C@H](CC[C@@H]4[C@@]5(C)CC[C@H](O)C(C)(C)[C@@H]5CC[C@]43C)[C@@H]12 [Betulinic acid] | 2.41 |
| CN=c1nc(-c2ccccc2)n(-c2ccccc2)s1 | 1.93 |
| O=C(O)C1=C[C@@H](O)[C@@H](O)[C@H](O)C1 [Shikimic Acid] | -1 |
| C1N2CN3CN1CN(C2)C3 [Methenamine] | 4.79 |
| CCCCCN(C)CCC(O)(P(=O)(O)O)P(=O)(O)O [Ibandronate sodium] | -0.675 |
| CNc1ncnc2c1ncn2[C@@H]1O[C@H](CO)[C@@H](O)[C@H]1O [N6-methyladenosine (m6A)] | 0.501 |
| CC(C)OC(=O)C(C(=O)OC(C)C)=C1SC=CS1 [Malotilate] | 19 |
| CC(C)(C)C(=O)OCOC(=O)[C@@H]1N2C(=O)[C@@H](/N=C/N3CCCCCC3)[C@H]2SC1(C)C [Pivmecillinam] | -0.997 |
| N[C@@H](CC(=O)O)C(=O)O [L-Aspartic acid] | -0.394 |
| C[C@@H](O)[C@H]1C(=O)N2C(C(=O)O)=C(SCCNC=N)C[C@H]12 [Imipenem monohydrate] | -0.236 |
| c1ccc2c(c1)CCCC2C1=NCCN1 (stereo unspecified) [Tetrahydrozoline HCl] | 0.744 |
| c1ccc2c(c1)CCCC2C1=NCCN1 (stereo unspecified) [Tetrahydrozoline hydrochloride] | 0.503 |
| CN(C)C[C@H](O)Cn1c2ccc(Br)cc2c2cc(Br)ccc21 (racemic) [Wiskostatin] | -2.75 |
| C#Cc1cccc(Nc2ncnc3cc(OC)c(OCCCCCCC(=O)NO)cc23)c1 | < -6.7 |
| CC(=O)S[C@@H]1CC2=CC(=O)CC[C@]2(C)[C@H]2CC[C@@]3(C)[C@@H](CC[C@@]34CCC(=O)O4)[C@H]12 [Spironolactone] | 1.84 ± 1.7 |
| CC(C)(C)NCC(O)COc1cccc2[nH]c(=O)[nH]c12 (racemic) | 0.869 |
| CCCc1cc(C(N)=S)ccn1 [Protionamide] | 1.33 |
| COc1cc2c(Nc3ccc(NC(=O)c4ccccc4)cc3)ncnc2cc1OCCCN1CCOCC1 | < -6.7 |
| CC(=O)Nc1ccc(C(=O)Nc2ccccc2N)cc1 [CI994 (Tacedinaline)] | -5.53 |

| Structure (SMILES) | MBP+ mature oligodendrocyte number |
| --- | --- |
| O=C(O)[C@]1(Cc2cccc(Nc3nccs3)n2)CC[C@@H](Oc2cccc(Cl)c2F)CC1 | -3.79 |
| C=C1CC[C@H](O)C/C1=C/C=C1\CCC[C@]2(C)[C@@H]([C@H](C)CCCC(C)C)CC[C@@H]12 [Vitamin D3] | 5.56 |
| NC1(C(=O)O)CCCCC1 [1-Amino-1-cyclohexanecarboxylic acid hydrochloride] | -0.629 |
| CC(C)(O)[C@H]1CC[C@@](C)([C@H]2[C@@H](O)C[C@@]3(C)[C@@H]4C[C@H](O[C@@H]5O[C@H](CO)[C@@H](O)[C@H](O)[C@H]5O)[C@H]5C(C)(C)[C@@H](O[C@@H]6OC[C@@H](O)[C@H](O)[C@H]6O)CC[C@@]56C[C@@]46CC[C@]23C)O1 [Astragaloside A] | 0.955 |
| NNCCc1ccccc1 [Phenelzine sulfate] | 1.29 |
| C[C@H]1O[C@H](O[C@H]2[C@H](O)[C@@H](O)[C@@H](O[C@H]3[C@H](O)[C@@H](O)C(O)O[C@@H]3CO)O[C@@H]2CO)[C@H](O)[C@@H](O)[C@@H]1N[C@H]1C=C(CO)[C@@H](O)[C@H](O)[C@H]1O (stereo partly specified) [Acarbose] | -0.502 |
| CC(C)(C=O)Cc1cc(C(C)(C)C)c(O)c(C(C)(C)C)c1 | -0.119 |
| CNC1CCCN(c2c(F)cc3c(=O)c(C(=O)O)cn(C4CC4)c3c2OC)C1 (stereo unspecified) [Balofloxacin] | -0.107 |
| CN1CCC(=C2c3ccccc3C=Cc3ccccc32)CC1 [Cyproheptadine HCl] | < -5.15 |
| CN1CCC(=C2c3ccccc3C=Cc3ccccc32)CC1 [Cyproheptadine hydrochloride] | -2.79 |
| NCC(O)C1CCCCCCC1 (stereo unspecified) [2-Cyclooctyl-2-hydroxyethylamine hydrochloride] | -0.544 |
| CO[C@H]1/C=C/O[C@@]2(C)Oc3c(C)c(O)c4c(O)c(c(/C=N/N5CCN(C6CCCC6)CC5)c(O)c4c3C2=O)NC(=O)/C(C)=C\C=C\[C@H](C)[C@H](O)[C@@H](C)[C@@H](O)[C@@H](C)[C@H](OC(C)=O)[C@@H]1C [Rifapentine] | -1.28 |
| N=C(N)NC(=N)NCCc1ccccc1 [Phenformin HCl] | 8.34 |
| NCCc1c[nH]cn1 [Histamine 2HCl] | -0.945 |
| NCCc1c[nH]cn1 [Histamine dihydrochloride] | -0.439 |
| OC(Cn1cncn1)(Cn1cncn1)c1ccc(F)cc1F [Fluconazole] | -0.415 |
| Nc1[nH]cnc2ncnc1-2 [Adenine HCl] | 1.06 |
| C[C@@H](NCCCc1cccc(C(F)(F)F)c1)c1cccc2ccccc12 [Cinacalcet HCl] | < -6.7 |
| CC(=O)Nc1cccc(-n2c(=O)n(C3CC3)c(=O)c3c(Nc4ccc(I)cc4F)n(C)c(=O)c(C)c32)c1 | -2.36 |
| CC[N+](C)(C)c1cccc(O)c1 [Edrophonium chloride] | -0.805 |
| OCCN1CCN(CC/C=C2/c3ccccc3Sc3ccc(C(F)(F)F)cc32)CC1 [cis-(Z)-Flupenthixol dihydrochloride] | < -4.47 |
| COc1cc2ncnc(Sc3nnc(C)s3)c2cc1OC | -6.01 |
| Cc1cn[nH]c1 [4-Methylpyrazole hydrochloride] | 0.657 |
| Cc1ccc(S(=O)(=O)c2ccc([N+](=O)[O-])o2)cc1 | -6.27 |
| COC(=O)Nc1nc2cc(C(=O)c3cccs3)ccc2[nH]1 [Nocodazole] | -4.95 ± 1.4 |
| COc1cc(Br)c(Nc2nc(-c3c(C)nc4ncccn34)cs2)c(Br)c1 | -4.58 |

| Structure (SMILES) | MBP+ mature oligodendrocyte number |
| --- | --- |
| O=C(O)CCCCCCCC(=O)O [Azelaic acid] | -0.276 |
| CC(=Cc1ccc(C(=O)O)cc1)c1ccc2c(c1)C(C)(C)CCC2(C)C | 0.539 |
| COc1ccc(-c2cc(=O)c3c(O)c(OC)c(OC)cc3o2)cc1O [Eupatorin] | -3.85 |
| CC(C)(C)c1cnc(CSc2cnc(NC(=O)C3CCNCC3)s2)o1 | < -6.7 |
| CC(C)c1c(C(=O)Nc2ccccc2)c(-c2ccccc2)c(-c2ccc(F)cc2)n1CC[C@@H](O)C[C@@H](O)CC(=O)O [Atorvastatin calcium salt trihydrate] | -2.67 |
| CC(C)c1c(C(=O)Nc2ccccc2)c(-c2ccccc2)c(-c2ccc(F)cc2)n1CC[C@@H](O)C[C@@H](O)CC(=O)O [Atorvastatin Calcium] | -4.61 |
| CN(C)CCC(c1ccc(Cl)cc1)c1ccccn1 (racemic) [Chlorpheniramine Maleate] | -1.1 |
| CN(C)CCC(c1ccc(Cl)cc1)c1ccccn1 (racemic) [(±)-Chlorpheniramine maleate] | -1.14 |
| CCN[C@H]1CN(CCCOC)S(=O)(=O)c2sc(S(N)(=O)=O)cc21 [Brinzolamide] | 1.15 ± 1.8 |
| NC(=O)c1ccc(N(C(N)=O)c2c(F)cccc2F)nc1-c1ccc(F)cc1F | 2.26 |
| C[N+]1(C)CCC(OC(=O)C(c2ccccc2)c2ccccc2)CC1 [4-DAMP methiodide] | 2.86 |
| C[N+]1(C)CCC(OC(=O)C(c2ccccc2)c2ccccc2)CC1 | 0.467 |
| Oc1cc(O)c2c(c1)O[C@H](c1ccc(O)c(O)c1)[C@@H](O)C2 [(+)-Catechin Hydrate] | 0.0777 |
| CC(=O)Oc1ccccc1C(=O)Nc1ncc([N+](=O)[O-])s1 [Nitazoxanide] | 1.51 |
| O=c1cc(-c2ccccc2)oc2c(O)c(O)ccc12 [7,8-Dihydroxyflavone hydrate] | 1.97 |
| CCN(CC)CCOC(=O)C1(C2CCCCC2)CCCCC1 [Dicyclomine hydrochloride] | 9.71 |
| CCCc1cc(C)[nH]c(=O)c1CNC(=O)c1cc(-c2ccc(N3CCN(C(C)C)CC3)nc2)cc2c1cnn2C(C)C | < -6.35 |
| CC(N/C(=N\C#N)Nc1ccncc1)C(C)(C)C (stereo unspecified) [Pinacidil] | 0.681 |
| COc1ccc([C@@H]2CC(=O)c3c(O)cc(O)cc3O2)cc1O [Hesperetin] | 2.02 |
| Nc1c(CC(=O)O)cccc1C(=O)c1ccccc1 [Amfenac Sodium Monohydrate] | 5.73 |
| CN(C)CCCN1c2ccccc2Sc2ccc(C(F)(F)F)cc21 [Triflupromazine hydrochloride] | < -3.85 |
| O=C1NC(=O)c2c1c(-c1ccccc1)cc1[nH]c3ccc(O)cc3c21 | < -3.97 |
| COc1cc(C(=O)OCCCN2CCCN(CCCOC(=O)c3cc(OC)c(OC)c(OC)c3)CC2)cc(OC)c1OC [Dilazep hydrochloride] | -3.47 |
| COc1ccc(-c2ccc3c(N4CCOC[C@@H]4C)nc(N4CCOC[C@@H]4C)nc3n2)cc1CO | < -5.15 |
